# Assay results taken from PMC6919601, “Identification of Plasmodium dipeptidyl aminopeptidase allosteric inhibitors by high throughput screening” (PLoS ONE, 2019).
# Several values for one entry are separate records, joined by “and”; a condition that tells them apart may be missing. Identical values can stand only once. In all, about 110,000 compounds went through this assay and about 230 (0.21%) showed an effect of 50% or more. The list shows a part of the results.
# Biological target: DPAP1 (Plasmodium falciparum, UniProt Q8IIJ9)
# Test: primary screen, percent inhibition; read by cleavage of a fluorogenic dipeptide substrate; higher = more effect of the substance
# Set-up: species or system P. falciparum D10 trophozoite lysates; single well
# 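Also: 30 min substrate incubation versus DMSO and 10 µM JCP410 controls.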
# Chain of DPAP1 (Q8IIJ9 whole entry, looked up): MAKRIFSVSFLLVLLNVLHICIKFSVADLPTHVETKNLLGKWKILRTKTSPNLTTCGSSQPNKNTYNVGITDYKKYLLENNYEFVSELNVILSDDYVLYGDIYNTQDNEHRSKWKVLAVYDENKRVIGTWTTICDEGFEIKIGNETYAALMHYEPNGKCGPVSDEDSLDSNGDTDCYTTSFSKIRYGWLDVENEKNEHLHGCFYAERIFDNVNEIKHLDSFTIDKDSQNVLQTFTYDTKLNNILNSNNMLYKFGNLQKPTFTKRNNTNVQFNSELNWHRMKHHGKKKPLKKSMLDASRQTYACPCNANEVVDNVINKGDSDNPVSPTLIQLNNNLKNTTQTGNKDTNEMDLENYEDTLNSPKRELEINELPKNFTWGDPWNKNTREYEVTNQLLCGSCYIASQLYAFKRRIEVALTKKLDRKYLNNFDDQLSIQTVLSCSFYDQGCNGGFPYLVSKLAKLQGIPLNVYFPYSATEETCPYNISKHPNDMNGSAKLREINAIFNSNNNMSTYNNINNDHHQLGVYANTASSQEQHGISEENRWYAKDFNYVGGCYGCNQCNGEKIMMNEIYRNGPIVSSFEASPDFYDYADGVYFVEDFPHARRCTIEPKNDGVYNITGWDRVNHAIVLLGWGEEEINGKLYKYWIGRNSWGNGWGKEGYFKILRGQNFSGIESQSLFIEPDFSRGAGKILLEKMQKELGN
row,Structure (SMILES),% Inhibition @ 10 uM
1,COc1ccc(-c2cn3c4ccccc4n(C)c3n2)cc1,0.0538%
2,O=C1c2ccccc2NC(c2cccc([N+](=O)[O-])c2)N1c1ccc(Br)cc1 (centres unmarked),-3.35%
3,Cc1ccc(NC(=O)c2cc(C(F)(F)F)nn2C)c(C)c1,-4.21%
4,Cc1ccc(C(C)C)cc1OP1(=O)COc2ccccc2OC1,-1.11%
5,CCc1nc2cccnc2n1-c1ccc(CC(=O)N2CCN(C)CC2)cc1,-5.54%
6,COc1ccc(-c2onc(C)c2C)cc1S(=O)(=O)N(C)CC1COc2ccccc2O1 (centres unmarked),1.39%
7,O=C(N[C@@H](Cc1ccc2ccccc2c1)C(=O)N[C@@H](CCc1ccccc1)C(=O)C[N+](=O)[O-])OCc1ccccc1,3.66%
8,COc1ccccc1-c1c(C)nn2c(NCCN3CCCCCC3)cc(C)nc12,-3.7%
9,CCCS(=O)(=O)N1CCCC(C(=O)NCCCN2CCCCC2CC)C1 (centres unmarked),-3.58%
10,COc1cc(-c2nnc3sc(/C=C/c4ccccc4)nn23)cc(OC)c1OC,59.6%
11,CCOC(=O)c1c(S(=O)(=O)N(Cc2ccc(F)cc2)Cc2cccnc2)c(C)n(C)c1C,-2.83%
12,NC(=O)C1CCCN(Cc2ccc(F)cc2)C1 (centres unmarked),-0.603%
13,O=C(Cn1nc(C(F)(F)F)cc1C1CC1)Nc1ccccc1Cl,1.59%
14,CCOC(=O)N1CCC(N2C(=O)c3ccc(C(=O)O)cc3C2=O)CC1,4.01%
15,Cc1ccc(C(=O)N/C(=C/c2ccco2)C(=O)NC(C)C)cc1,-2.07%
16,OCCN1CCN(C2CCCCCCC2)CC1,-3.6%
17,COc1cc(Cc2nnc(C(=O)NCc3ccccn3)o2)cc(OC)c1OC,6.37%
18,COc1ccc(OC)c(CN2CCN(Cc3ccc(SC)cc3)CC2)c1,0.673%
19,O=C(c1cc(-c2ccc(Cl)cc2)n[nH]1)N1CCc2ccccc2C1,4.47%
20,Cc1[nH]nc2ccccc12,1.68%
21,Cn1c(=O)c2c(ncn2CC(O)CN2CCOCC2)n(C)c1=O (centres unmarked),-3.04%
22,Cc1cnc(NC(=O)c2ccc(COc3ccc(Cl)cc3Cl)o2)s1,1.87%
23,O=C(CCCc1cn(Cc2ccccc2Cl)c2ccccc12)NCCN1CCOCC1,-5.42%
24,CNC(=O)C(NC(=O)c1ccc([N+](=O)[O-])cc1)C12CC3CC(CC(C3)C1)C2 (centres unmarked),2.58%
25,CCOc1ccc(NC(=O)c2sc3nc4c(cc3c2N)CCC4)cc1,2.44%

row,Structure (SMILES),% Inhibition @ 10 uM
1,O=C(O)c1ccc(NC(=O)C2C3CCC(O3)C2C(=O)O)cc1 (centres unmarked),-3.34%
2,COc1ccccc1N1CCN(CCN2C(=O)C3CCCN3C2=O)CC1 (centres unmarked),3.29%
3,COc1cc2oc(C(=O)OCCN(C)C)c(C)c2cc1Br,-1.76%
4,CCOc1ccc(CC(=O)Nc2ccccc2C(F)(F)F)cc1OCC,-3.34%
5,COc1cc(C2c3c(oc4ccccc4c3=O)C(=O)N2c2nccs2)cc(OC)c1OC (centres unmarked),6.01%
6,CCCc1nc2ccccc2c(=O)n1-c1cccc(OC)c1,-8.23%
7,Cc1ccc2c(CNCCC3=CCCCC3)c(C(=O)O)n(Cc3ccccc3F)c2c1,-2.74%
8,CN(C)S(=O)(=O)n1cc(/C=C(\NC(=O)c2ccccc2F)C(=O)N2CCCC2)c2ccccc21,-3.52%
9,COc1cc2c3c(c1OC)C1(C=CC(=O)C=C1)CC3N(C(=O)c1ccccc1)CC2 (centres unmarked),2.1%
10,Cc1ccc(C)n1-c1ccc(C(=O)Nc2ccccc2)cc1,0.727%
11,Cc1ccc(CNS(=O)(=O)c2ccc3c(c2)OCCO3)cc1,0.0504%
12,COc1ccc(-c2nc(SCC(=O)NCC3CCCO3)c(-c3ccc(C)cc3)[nH]2)cc1 (centres unmarked),5.06%
13,CN1CCCN(Cc2cc(Cl)ccc2[N+](=O)[O-])CC1,2.23%
14,COc1cccc(N(CC(=O)Nc2ccc3c(c2)OCO3)S(=O)(=O)c2ccccc2)c1,-6.77%
15,CCc1ccc(C2C3=C(CC(C)(C)CC3=O)N=C3C2=C(O)c2ccccc23)cc1 (centres unmarked),2.31%
16,COC(=O)C1=C(N)OC2=C(C(=O)CCC2)C1c1cc(Cn2cncn2)cs1 (centres unmarked),2.65%
17,Cc1cc(C(=O)N2CCN(c3ccccn3)CC2)c2c(C)nn(-c3cccc(Cl)c3C)c2n1,-3%
18,O=C(CN1C(=O)c2ccccc2C1=O)N1CCN(Cc2ccc(Cl)cc2)CC1,-1.46%
19,c1ccc(CCc2nnc3c4c5c(sc4ncn23)CCCC5)cc1,-0.85%
20,O=S(=O)(Nc1ccccc1Cl)c1ccc(F)cc1,0.135%
21,COc1ccc2[nH]c(SCC(O)c3ccc(Br)cc3)nc2c1 (centres unmarked),0.19%
22,CC(C)C(NS(=O)(=O)c1cccc2nsnc12)C(=O)NC1CCCCC1 (centres unmarked),-2.25%
23,C=CCN1C(=O)C(CC(=O)NCC)S/C1=N\c1cccc2ccccc12 (centres unmarked),0.512%
24,CN(C)CCCN(C(=O)C1CCCCC1)c1nc2ccc(Br)cc2s1,0.745%
25,Cc1cc(C)c(S(=O)(=O)N(C)CC(=O)NCc2ccccn2)c(C)c1,-0.891%

row,Structure (SMILES),% Inhibition @ 10 uM
1,O=C(NCc1ccco1)c1c(O)nnc(-c2ccccc2)c1-c1ccccc1,2.04%
2,N#CC1=C(N)Oc2[nH]nc(-c3ccccc3)c2C12C(=O)Nc1ccc(Br)cc12 (centres unmarked),0.726%
3,CCOc1cccc2cc(C(=O)/C=C/c3ccc(SC)cc3)c(=O)oc12,0.907%
4,O=C(NC1CCCC1)c1c(O)nc2ccccc2c1O,-0.158%
5,COc1ccc2nc(/N=C(\N)NC(=O)Cc3ccccc3)nc(C)c2c1,-6.78%
6,Cc1ccc(Cl)cc1-n1c(C)cc(/C=C2\C(=N)N3N=C(S(C)(=O)=O)SC3=NC2=O)c1C,8.11%
7,Cc1cc(-c2[nH]nc3c2C(c2cccnc2)C(C#N)=C(N)O3)c(C)s1 (centres unmarked),-4.12%
8,COc1cccc2c1Oc1nc(-c3ccc(OC)c(OC)c3OC)nc(S)c1C2,5.61%
9,O=C(O)/C=C(\OCCO)C1(O)CCCCC1,-7.01%
10,CN(CCCNC(=O)c1cc(-c2cccnc2)nc2ccccc12)Cc1ccccc1,-0.0542%
11,c1ccc(-c2csc3ncnc(N4CCN(c5ccccn5)CC4)c23)cc1,-3.49%
12,COc1ccccc1NC(=O)c1c(NC(=O)c2ccco2)sc2c1CCC2,-4.43%
13,c1sc2[n+](c1C13CC4CC(CC(C4)C1)C3)CCS2,2.01%
14,Cn1ccnc1SCC(O)c1ccc2c(c1)OCO2 (centres unmarked),-1.31%
15,O=C(CSc1n[nH]c(-c2ccccc2)n1)Nc1ccccn1,4.97%
16,Cc1ccnc2nc(NC(=O)C(C)N3C(=O)c4ccccc4C3=O)nn12 (centres unmarked),-4.91%
17,Cc1c(CNC(=O)c2cnn3c2NC(c2ccc(Br)cc2)CC3C(F)(F)F)cnn1C (centres unmarked),8.63%
18,Cc1ccc(-n2nc3c(N4CCC(C(=O)N5CCN(C)CC5)CC4)nnc(C)c3c2C)cc1,-7.08%
19,COc1ccc(NCC(O)CN2C(=O)c3ccccc3C2=O)cc1 (centres unmarked),1.52%
20,CCOC(=O)c1c(NC(=O)c2c(OC)cccc2OC)sc2c1CCC(C)C2 (centres unmarked),19.7%
21,O=C(O)c1ccc(NCc2cccc(Br)c2)cc1,-0.0619%
22,COc1cc2nc3c(O)n(Cc4ccccc4Cl)cnc-3c2cc1OC,3.24%
23,CN(C)CCN(Cc1ccccc1)C(=O)C1CCN(c2ncnc3c2nc2n3CCCCC2)CC1,-5.56%
24,O=C(Cc1ccc(F)cc1)Nc1nc(-c2ccccc2)cs1,0.931%
25,C=C(C)c1cccc(C(C)(C)NC(=O)NCc2ccc(OC)cc2)c1,-3.96%

row,Structure (SMILES),% Inhibition @ 10 uM
1,Cc1c2cnn(CC(=O)N3CC(C)CC(C)C3)c(=O)c2c(C)n1Cc1ccccc1F (centres unmarked),-7.72%
2,CCn1cc(CCC(=O)NCc2ccccc2C)c2ccccc21,-6.19%
3,CC(CNC(=O)Cn1ncc2c3ccccc3n(C)c2c1=O)c1ccccc1 (centres unmarked),-11.3%
4,Cc1nn(-c2ccccc2)c2c1N(CC(=O)NC(C)C13CC4CC(CC(C4)C1)C3)C(=O)CS2 (centres unmarked),-7.3%
5,O=c1oc2ccc([N+](=O)[O-])cc2cc1-c1nc(-c2ccc(Cl)c(Cl)c2)cs1,-4.21%
6,CC(CCc1ccccc1)NC(=O)Cn1ncc2c1-c1ccccc1OC2 (centres unmarked),-2.42%
7,Cc1ccc(-n2ncc3c(N4CCCC4)ncnc32)cc1Cl,2.24%
8,CC(=O)c1c(NCCc2ccccc2)cc(C)oc1=O,5.42%
9,CNC(=O)c1ccc(-n2c(C)nc3cccnc32)cc1,-0.943%
10,COC(=O)Nc1cc(C)nc2ccccc12,-8.71%
11,O=c1oc2ccccc2n1Cc1ccccc1Cl,-4.6%
12,CC(=O)c1ccc(NC(=O)CCc2ccccc2)cc1,-1.98%
13,O=C(NC1CCCCC1)c1nc2nc(-c3ccccc3)cc(C(F)(F)F)n2n1,0.0035%
14,O=c1c2c(nc3n1CCS3)-c1ccccc1CC21CCCC1,1.8%
15,CCOc1ccccc1C(=O)Nc1cc(C)on1,-4.59%
16,COC(=O)c1sc(N2C(=O)c3oc4ccccc4c(=O)c3C2c2cccnc2)nc1C (centres unmarked),-2.92%
17,CN1CCN(c2nc3nonc3nc2N2CCN(C)CC2)CC1,9.21%
18,CCCC1=NN2C(=N)/C(=C/c3ccc(-c4ccccc4)o3)C(=O)N=C2S1,0.47%
19,Cc1nc2ccccc2n1CC(=O)NCCCn1ccnc1,-2.19%
20,Cc1ccc(NC(=O)Nc2nc3c(s2)CC(C)CC3)cc1 (centres unmarked),0.674% and 2.64%
21,CN1CCN(C(=O)C2CCN(S(=O)(=O)N3CCC4(CC3)OCCO4)CC2)CC1,-4.83%
22,N#C/C(=C\c1cccc2ccccc12)c1nn(CCO)c(N)c1C#N,22.6%
23,Cc1ccccc1C(=O)Nc1ccc(C#N)cc1,-2.63%
